{
  "source": "PubChem BioAssay AID624417",
  "about": "(National Center for Advancing Translational Sciences (NCATS), 2012)",
  "note": "About 6,400 (1.6%) of roughly 410,000 compounds were called active. Inconclusive means that the source gave no clear call. Such entries were picked first, then a sample of the others. Calls come from the whole dose curve; as a rule, active = well fitted inhibition curve with a large enough effect; inconclusive = small, poorly fitted or top-dose-only effect; inactive = no such curve, though single readings can be large or run the other way. Potencies of inconclusive entries are left out as doubtful fits. % is set by controls: 0 for no effect and ±100 for the full control effect; potency is the fitted concentration of half-maximal effect; tags give direction and shape of the fitted curve.",
  "data": [
    {"molecular_target": "Glucagon-like peptide 1 receptor (Homo sapiens) (UniProt P43220)", "sequence (P43220 whole entry, looked up)": "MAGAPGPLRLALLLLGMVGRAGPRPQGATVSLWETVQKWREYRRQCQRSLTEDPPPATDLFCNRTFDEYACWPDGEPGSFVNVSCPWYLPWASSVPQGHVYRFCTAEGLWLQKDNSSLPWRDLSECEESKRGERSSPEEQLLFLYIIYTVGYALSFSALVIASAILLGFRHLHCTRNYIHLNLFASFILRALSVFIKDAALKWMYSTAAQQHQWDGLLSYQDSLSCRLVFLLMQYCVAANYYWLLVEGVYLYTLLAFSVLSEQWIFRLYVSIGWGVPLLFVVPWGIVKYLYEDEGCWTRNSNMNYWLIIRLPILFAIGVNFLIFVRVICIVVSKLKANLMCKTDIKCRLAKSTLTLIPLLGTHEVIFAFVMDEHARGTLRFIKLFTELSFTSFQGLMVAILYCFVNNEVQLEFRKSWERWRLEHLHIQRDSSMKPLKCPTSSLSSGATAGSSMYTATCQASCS", "test": "qHTS of GLP-1 Receptor Inverse Agonists (Inhibition Mode); note: nearly all actives have a fitted effect of over 55% in size", "details": "HEK293 GLP-1R CRE-luciferase, luminescence, 24 h, GLP-1R form is constitutively active; activity change, negative = inhibition: at 38.3 µM (top of the series) unless noted", "method_in_brief": "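Seeding at 200 cells/uL, 12 h culture, 24 hr compound treatment, then luciferase reagent and a luminescence read; cells are HEK293 stably expressing a constitutively active GLP-1R plus cAMP-responsive luciferase.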", "values": [
      {"smiles": "CN(C)C1=NC[C@H](Cc2ccccc2)N1CCCC1CCCCC1", "Potency": "inactive"},
      {"smiles": "Cc1ccc(OCc2nnc(SCc3nc4ccccc4[nH]3)n2Cc2ccco2)cc1", "Potency": "inconclusive [inhibitor, partial curve]"},
      {"smiles": "COc1cccc(CN(C)C(=O)C(CCSC)NS(=O)(=O)c2ccc3c(c2)OCCO3)c1OC", "note": "(stereo not given)", "Potency": "inconclusive [inhibitor, partial curve, poor fit]"},
      {"smiles": "CCC(C(=O)OCC(=O)Nc1c(Cl)cc(Cl)cc1Cl)c1ccccc1", "note": "(stereo not given)", "Potency": "inconclusive [inhibitor, partial curve]"},
      {"smiles": "CC(C)CN1CCc2nc(Nc3ccc(F)cc3F)ncc2C1", "Potency": "inconclusive [inhibitor, single point]"},
      {"smiles": "C=CCNC(=O)/C(C#N)=C/c1cc(Br)ccc1OC", "Potency": "inconclusive [inhibitor, full curve, poor fit]"},
      {"smiles": "Cn1ncc(Br)c1C(=O)NC1C2CC3CC(C2)CC1C3", "note": "(stereo not given)", "Potency": "inconclusive [inhibitor, partial curve, poor fit]"},
      {"smiles": "Cc1ccc(C(=O)c2oc3ccc(Cl)cc3c2NC(=O)CN2CCN(C)CC2)cc1", "Potency": "inconclusive [inhibitor, partial curve, poor fit]"},
      {"smiles": "O=C(CN1CCN(Cc2ccccc2Cl)C1=O)NC1CCCCCCC1", "Potency": "inconclusive [inhibitor, partial curve, poor fit]"},
      {"smiles": "CCN(CC(=O)N1CCOCC1)S(=O)(=O)c1cc(Cl)ccc1Cl", "Potency": "inactive"},
      {"smiles": "Cc1ccc(-c2onc(C)c2C)cc1S(=O)(=O)N1CCOc2ccc(Cl)cc21", "Potency": "inconclusive [inhibitor, single point]"},
      {"smiles": "OC(C#CCN1CCCC1)c1ccccc1", "note": "(stereo not given)", "Potency": "inactive"},
      {"smiles": "C/C(=C\\C(=O)c1ccc(Br)cc1)Nc1ccc(Cl)cc1", "Potency": "inconclusive [inhibitor, single point]"},
      {"smiles": "CCCC(=O)Nc1sc(C(=O)Nc2cccc(N)c2)c(C)c1C(=O)OC", "Potency": "inconclusive [inhibitor, partial curve, poor fit]"},
      {"smiles": "Cc1cc(C)c(NC(=O)CN2C(=O)NC3(CCOc4ccccc43)C2=O)c(C)c1", "note": "(stereo not given)", "Potency": "inconclusive [inhibitor, single point]"},
      {"smiles": "Cc1cccc(NC(=O)C(C)OC(=O)CNC(=O)C2CCCCC2)c1", "note": "(stereo not given)", "Potency": "inactive"},
      {"smiles": "O=C(O)Cc1sc(-c2ccccc2Cl)nc1-c1ccccc1", "Potency": "inconclusive [inhibitor, single point]"},
      {"smiles": "COc1ccc(/C=C(\\NC(=O)c2ccc(OCC(C)C)cc2)C(=O)OCc2ccco2)cc1", "Potency": "inconclusive [inhibitor, full curve]"},
      {"smiles": "Cc1cccn2c(Nc3ccccc3)c(-c3cccs3)nc12", "Potency": "inconclusive [inhibitor, partial curve, poor fit]"},
      {"smiles": "CS(=O)(=O)c1ccccc1C(=O)N(CCc1ccccc1)Cc1ccccc1", "Potency": "inconclusive [inhibitor, single point]"},
      {"smiles": "COc1ccccc1NC(=O)CSc1nc2nccnc2c(=O)n1CCc1c[nH]c2ccccc12", "Potency": "inconclusive [inhibitor, single point]"},
      {"smiles": "CCCCC(=O)Nc1ncc(Br)s1", "Potency": "inconclusive [inhibitor, single point]"},
      {"smiles": "OCCCNc1ncnc2scc(-c3ccc(Cl)cc3)c12", "activity change, negative = inhibition": "inconclusive: -80.1% [inhibitor]"},
      {"smiles": "Cc1cnc(NC(=O)CN2CCN(c3ccccn3)CC2)s1", "Potency": "inconclusive [inhibitor, single point]"},
      {"smiles": "Cc1nn(-c2ccccc2)c(Cl)c1C(=O)NNC(=O)c1ccccc1O", "Potency": "inconclusive [inhibitor, single point]"},
      {"smiles": "CC(NC(=O)c1ccc(Br)cc1)c1ccc2c(c1)CCCC2", "note": "(stereo not given)", "Potency": "active: 10 µM"},
      {"smiles": "Clc1ccc(Oc2nc(Oc3ccc(Cl)cc3)nc(N3CCOCC3)n2)cc1", "Potency": "inconclusive [inhibitor, partial curve, poor fit]"},
      {"smiles": "CCOC(=O)c1[nH]c(C)c(C(=O)Nc2ccc(C)cc2C)c1C", "Potency": "inconclusive [inhibitor, full curve, poor fit]"},
      {"smiles": "O=C(COc1ccc(Cl)cc1Cl)NNC(=S)NCc1ccco1", "Potency": "inconclusive [inhibitor, partial curve, poor fit]"},
      {"smiles": "Clc1ccc(OCCCN2CCc3ccccc3C2)c(Br)c1", "Potency": "inconclusive [inhibitor, partial curve, poor fit]"},
      {"smiles": "COc1cccc(NS(=O)(=O)c2ccc3c(c2)[C@H]2C=CC[C@H]2[C@@H](c2ccccc2Cl)N3)c1", "Potency": "inconclusive [inhibitor, single point]"},
      {"smiles": "O=c1c(-c2cc3ccccc3[nH]2)nc2ccccc2n1C(CCc1ccccc1)c1nc2ccccc2[nH]1", "note": "(stereo not given)", "Potency": "active: 3.16 µM"},
      {"smiles": "Cc1coc2c(C)c3oc(=O)cc(-c4ccccc4)c3cc12", "Potency": "inactive"},
      {"smiles": "CCOc1ccc(C(=O)N2CCN(c3cccc(C)c3C)CC2)cc1", "Potency": "inconclusive [inhibitor, full curve, poor fit]"},
      {"smiles": "CC1CCCCC12NC(=O)N(CC(=O)Nc1ccc(OC(F)F)cc1)C2=O", "note": "(stereo not given)", "Potency": "inconclusive [inhibitor, partial curve, poor fit]"},
      {"smiles": "Cc1ccc(NC(=O)CSc2nnc(NC(=O)c3ccc(S(=O)(=O)N4CCOCC4)cc3)s2)cc1", "Potency": "inactive"},
      {"smiles": "CC(C)(C)NC(=O)C1CCC(C)(C(=O)O)C1(C)C", "note": "(stereo not given)", "Potency": "inactive"},
      {"smiles": "CCN1CCc2nc(NC(=O)c3ccccc3)sc2C1", "Potency": "inconclusive [inhibitor, single point]"},
      {"smiles": "O=C(/C=C1\\SC(=O)NC1=O)Nc1ccc(F)cc1", "activity change, negative = inhibition": "inactive: 0.499% [at 7.66 µM]"},
      {"smiles": "CC(=O)N1CCN(C(=O)c2cc3ccccc3o2)CC1", "Potency": "inactive"},
      {"smiles": "CCN1CCN(C(=S)Nc2ccsc2C(=O)OC)CC1", "Potency": "inconclusive [inhibitor, partial curve, poor fit]"},
      {"smiles": "CCOC(=O)C1CCC(CN(Cc2ccc(Cl)cc2)S(=O)(=O)c2cc(Cl)cc(Cl)c2)CC1", "note": "(stereo not given)", "Potency": "inactive"},
      {"smiles": "Cc1cccc(N2CCN(C(=O)C3CCCN(S(=O)(=O)c4ccc(Br)s4)C3)CC2)c1C", "note": "(stereo not given)", "Potency": "inconclusive [inhibitor, partial curve, poor fit]"},
      {"smiles": "CC(C)(C)c1ccc(C(=O)NCCc2ccccc2)cc1", "Potency": "inconclusive [inhibitor, partial curve, poor fit]"},
      {"smiles": "CC(NC(=O)c1ccc2c(c1)OCO2)C(c1cccs1)N1CCN(c2ccccc2)CC1", "note": "(stereo not given)", "Potency": "inconclusive [inhibitor, partial curve, poor fit]"},
      {"smiles": "CCOc1ccc(CCNC(=O)c2nc(-c3cccc(F)c3)n3c2CCCCC3)cc1OCC", "Potency": "inconclusive [inhibitor, partial curve, poor fit]"},
      {"smiles": "Cc1ccc(C)c(OCC(=O)Nc2ccc(S(=O)(=O)Nc3ccccn3)cc2)c1C", "Potency": "inconclusive [inhibitor, partial curve, poor fit]"},
      {"smiles": "COc1ccccc1CCCNC(=O)C1CCC(=O)N(CCc2ccc(Cl)cc2)C1", "note": "(stereo not given)", "Potency": "inconclusive [inhibitor, partial curve]"},
      {"smiles": "O=C(Nc1cccc(C(F)(F)F)c1)c1cccnc1N1CCOCC1", "Potency": "inactive"},
      {"smiles": "COc1ccc(C2CC(c3ccccc3)=NN2C(=O)COC(=O)c2cccc(O)c2)cc1", "note": "(stereo not given)", "Potency": "inconclusive [inhibitor, partial curve, poor fit]"},
      {"smiles": "Cc1ccc(/C=C2\\SC(N3CCN(C(c4ccccc4)c4ccccc4)CC3)=NC2=O)o1", "Potency": "inconclusive [inhibitor, full curve, poor fit]"},
      {"smiles": "CC(C)c1nc2ccc(C(=O)NCCCN3CCN(c4cccc(Cl)c4)CC3)cc2o1", "Potency": "active: 10 µM"},
      {"smiles": "NS(=O)(=O)c1ccc(CCNC(=O)c2ccc(Cl)s2)cc1", "Potency": "inactive"},
      {"smiles": "Cc1cccc(N2CCN(C(=O)CN3C(=O)COc4ccc(S(=O)(=O)N5CCC(C)CC5)cc43)CC2C)c1", "note": "(stereo not given)", "Potency": "inactive"},
      {"smiles": "CC(C)(C)NC(=O)C[C@H]1C[C@H](C(=O)N2CCCCC2)[C@@]2(CCc3ccccc3)c3[nH]c4cc(-c5ccco5)ccc4c3CCN2C1=O", "Potency": "inconclusive [inhibitor, single point]"},
      {"smiles": "COc1cccc(CN2CCC2(C)C(=O)Nc2ccc(C)c(O)c2)c1F", "note": "(stereo not given)", "Potency": "inconclusive [inhibitor, single point]"},
      {"smiles": "COc1ccc2oc(C(=O)Nc3ccc(N4CCOCC4)cc3)c(C)c2c1", "Potency": "inconclusive [inhibitor, single point]"},
      {"smiles": "Brc1ccc(OCc2cn3ccccc3n2)cc1", "Potency": "inconclusive [inhibitor, single point]"},
      {"smiles": "CC(C)(C)c1nc(Sc2ccc([N+](=O)[O-])cn2)n[nH]1", "Potency": "inactive"},
      {"smiles": "CCOC(=O)N1CCN(Cc2nc3cc([N+](=O)[O-])ccc3n2C(C)C)CC1", "Potency": "inactive"},
      {"smiles": "O=C(Nc1cccnc1)c1ccc(CSc2ccccc2)cc1", "Potency": "inactive"},
      {"smiles": "COc1nc(C)cc(C)c1S(=O)(=O)c1ccccc1C", "Potency": "inconclusive [inhibitor, partial curve, poor fit]"},
      {"smiles": "S=C(NCCC(c1ccccc1)c1ccccc1)Nc1ccccc1Cl", "Potency": "inconclusive [inhibitor, single point]"},
      {"smiles": "Cc1ccc(S(=O)(=O)N2CCOCC2)cc1NC(=O)COc1ccc(C(=O)c2ccccc2)cc1", "Potency": "inconclusive [inhibitor, single point]"},
      {"smiles": "CCN1CCN(S(=O)(=O)c2ccc(Cl)c(C(=O)N(CCc3ccccc3)Cc3ccccc3)c2)CC1", "Potency": "inconclusive [inhibitor, partial curve, poor fit]"}
    ]}
  ]
}
